# From PubChem BioAssay AID894 (National Center for Advancing Translational Sciences (NCATS), 2007)
# About 6,500 (4.3%) of roughly 150,000 compounds were called active. The shares of active, inactive and inconclusive entries below differ from those in the screen. The call rests on the fitted dose curve; in most records, active means well fitted inhibition curve with a large enough effect (not every such curve was filed as active); inconclusive means small, poorly fitted or top-dose-only effect, or another doubt; inactive means no such curve, though single readings can be large or run the other way. No potency is given beside an inconclusive call; the fits are too rough.
# Target: 15-hydroxyprostaglandin dehydrogenase [NAD(+)] (Homo sapiens) (UniProt P15428)
# Assay: qHTS Assay for Inhibitors of HPGD (15-Hydroxyprostaglandin Dehydrogenase)
# Details: purified HPGD, NADH fluorescence kinetic, PGE2 substrate; activity change, negative = inhibition: stronger effect = lower value
# Method in brief: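 20 nM HPGD preincubated 15 min at room temperature with compound in 50 mM Tris-HCl pH 8, 0.01% Tween 20. Started with 1 mM NAD+ and 30 uM prostaglandin E2; NADH fluorescence (360/450 nm) read 5 times over 30-s intervals, last minus first.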
# On the % scale 0 is the no-effect control and ±100 the full control effect; potency means the concentration at half of the fitted maximal effect; tags describe the fitted curve by direction and shape.
# UniProt P15428, sequence (P15428 whole entry, looked up): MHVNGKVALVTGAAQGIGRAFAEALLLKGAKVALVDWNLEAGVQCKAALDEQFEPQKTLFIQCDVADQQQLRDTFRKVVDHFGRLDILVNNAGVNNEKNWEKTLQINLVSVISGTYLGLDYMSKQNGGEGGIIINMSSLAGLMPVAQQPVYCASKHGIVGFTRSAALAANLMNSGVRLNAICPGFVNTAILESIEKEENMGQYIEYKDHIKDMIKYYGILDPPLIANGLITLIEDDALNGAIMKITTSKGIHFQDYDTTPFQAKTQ
Compound,"activity change, negative = inhibition",Potency
CN1CCS/C1=C/C=C1/SC(=S)N(Cc2ccccc2)C1=O,inactive: -13.5%,–
CCc1nc2sc3c(=O)n(N)cnc3c2c2c1COC(C)(C)C2,inactive: -9.62%,–
N#Cc1cc(C(=O)c2cc(Cl)ccc2O)cn(CC2CCCO2)c1=O (centres undefined),–,"inconclusive [inhibitor, partial curve]"
Cc1ccc(-c2cc(C(=O)OCn3nnc4ccccc4c3=O)c3ccccc3n2)cc1,–,"inconclusive [inhibitor, partial curve]"
COc1cc(-c2nn3c(Cc4ccccc4)nnc3s2)cc(OC)c1OC,–,"inconclusive [inhibitor, partial curve]"
Cc1ccc(C(=O)Nc2cnc3ccccn3c2=O)cc1,–,"inconclusive [inhibitor, partial curve]"
Cc1ccc(-c2csc(Cc3nc(-c4cc5ccccc5oc4=O)cs3)n2)cc1,–,"inconclusive [inhibitor, full curve, poor fit]"
CCCc1cc(C(F)(F)F)c(C#N)c(=O)[nH]1,–,"inconclusive [inhibitor, partial curve]"
CCCC(=O)N1CCN(c2nc(CC(C)C)c3c(c2C#N)CCC3)CC1,–,"inconclusive [inhibitor, partial curve]"
Cc1ccc2sc(-c3ccc(NC(=O)c4cc(-n5cnnc5)ccc4Cl)cc3)nc2c1,–,"inconclusive [inhibitor, partial curve]"
COc1ccc(-c2cc(C(F)(F)F)n3nc(C(=O)N4CCCC4)cc3n2)cc1,–,"inconclusive [inhibitor, full curve]"
CCOC(=O)c1[nH]c2ccc(F)cc2c1NC(=O)C1=COCCO1,–,"inconclusive [inhibitor, partial curve]"
COc1cc(C(=O)Oc2cccc(Nc3ncnc4ccccc34)c2)cc(OC)c1OC,–,"inconclusive [inhibitor, single point]"
Clc1ccc(N2N=C(c3cccs3)CC2c2ccco2)cc1 (centres undefined),–,"inconclusive [inhibitor, partial curve]"
COC(=O)CCC(=O)NC(=S)Nc1cc(Cl)ccc1Cl,inactive: -25.5%,–
CCOC(=O)c1c(NC(=O)CSc2nnc(-c3cccnc3)o2)sc2c1CCC2,inactive: -18.7%,–
CC(=O)c1ccc2c3c(ccc(O)c13)CC2,–,active: 14.1 µM
N#C/C(=C\N1CCNC1=S)C(=O)c1ccc2ccccc2c1,inactive: -12.7%,–
CC(C)Cn1c(N)c(C(=O)NCCN2CCOCC2)c2nc3ccccc3nc21,–,"inconclusive [inhibitor, partial curve]"
